# Test results published in PubChem BioAssay AID1347417 (National Center for Advancing Translational Sciences (NCATS), 2020).
# In all, about 120,000 compounds went through this assay and about 5,300 (4.4%) were called active. Inconclusive results, whose numbers are uncertain, are shown with a selection of clear calls. Calls come from the whole dose curve; as a rule, active = well fitted inhibition curve with a large enough effect; inconclusive = small, poorly fitted or top-dose-only effect; inactive = no such curve, though single readings can be large or run the other way. Where the call is inconclusive, the potency comes from a doubtful curve fit.
# Assay: qHTS Primary assay for Inhibitors of Plasmodium falciparum Dd2 growth in vitro; note: nearly all actives have a fitted effect of over 65% in size;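 for activity, negative = inhibition: plate controls were DMSO vehicle for no effect and reference drug for full effect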
# Conditions: P. falciparum Dd2 growth, SYBR Green, 72 h; activity, negative = inhibition: at 28.9 µM (top of the series) unless noted; series mostly up to 28.9 µM
# Method in brief: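 Readout: SYBR Green fluorescence, 485 nm excitation, 535 nm emission, after ~16 h lysis at 37C. Before that, Dd2-infected red cells (2.5% hematocrit) grew 72 h with compound, 29 uM top final concentration.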
# Potency is the fitted concentration of half-maximal effect; tags give direction and shape of the fitted curve.
Compound,Potency,"activity, negative = inhibition"
Cc1ccc(N2C(=O)CS(=O)(=O)C23C(=O)N(Cc2ccc(Cl)cc2)c2ccccc23)cc1C (configuration not stated),active: 2.24 µM,
COc1ccc(C(=O)N(c2ccc(C)cc2)S(=O)(=O)c2ccc(C)cc2)cc1,"inconclusive: 15.8 µM [inhibitor, single point]",
CCOC(=O)c1c(NC(=O)COc2ccc(C(C)(C)C)cc2)sc2c1CCCC2,"inconclusive: 20 µM [inhibitor, single point]",
CCc1cccc(CC)c1NC(=O)Cn1nnc2sc3c(c2c1=O)CCCC3,,inconclusive: -36.4% [inhibitor] [at 5.79 µM]
O=C(NC1CCN(c2cc(-c3ccccc3)[nH]n2)C1)c1ccccc1F (configuration not stated),inactive,
O=C(c1nc(-c2ccsc2)c2ccccn12)N1CCN(c2ncccn2)CC1,"inconclusive: 12.6 µM [inhibitor, partial curve, poor fit]",
O=C1CC(c2ccccc2)N(Cc2ccncc2)CCCN(C(=O)c2cccs2)CCN1 (configuration not stated),"inconclusive: 8.91 µM [inhibitor, partial curve, poor fit]",
Cc1ncccc1C(=O)N1CCC(N2C(=O)CCC2C(=O)NCc2ccccc2)CC1 (configuration not stated),inactive,
CS(=O)(=O)N1CCC(N2C(=O)C3(CCCCC3)C2c2ccccc2)CC1 (configuration not stated),inactive,
CC(=O)c1c(C)n(-c2ccc(C)cc2)c2ccc(OC(=O)COc3ccccc3)cc12,"inconclusive: 10 µM [inhibitor, single point]",
CNC(=O)c1ccc(CN2CCCC(Nc3ccc(F)cc3)C2)o1 (configuration not stated),"inconclusive: 11.2 µM [inhibitor, partial curve, poor fit]",
CCC(=O)N1c2ccccc2CC1c1nc(C(C)C)no1 (configuration not stated),"inconclusive: 3.16 µM [inhibitor, single point]",
COCCN(CC1CCCN(C2Cc3ccccc3C2)C1)C(=O)c1cc(C)nn1C (configuration not stated),"inconclusive: 11.2 µM [inhibitor, partial curve, poor fit]",
Clc1cccc(-n2ncc3c(NCCCN4CCOCC4)ncnc32)c1,"inconclusive: 17.8 µM [inhibitor, partial curve, poor fit]",
Cc1oc(-c2cccc(Cl)c2)nc1CN1CCN(C(=O)N(C)C)CC1,"inconclusive: 8.91 µM [inhibitor, single point]",
CCC(=O)N1CCC(Cc2noc(C3CCOCC3)n2)C1 (configuration not stated),inactive,
CN(C)c1ccc(C(=O)NC2CCN(c3cc(-c4cccs4)[nH]n3)C2)cc1 (configuration not stated),inactive,
Cc1cccc(Nc2nc3c(S(=O)(=O)c4ccc(Br)cc4)nnn3c3ccsc23)c1C,inactive,
CCOc1ccccc1C(=O)NCc1ccc2c(c1)CCN2C(=O)c1ccccc1,"inconclusive: 11.2 µM [inhibitor, single point]",
CO[C@H]1[C@H](NC(=O)c2cc(C3CC3)[nH]n2)c2ccccc2C12CCNCC2,inactive,
Cc1ccc2nc([C@H]3CCN(C4CCC4)C3)[nH]c2c1,"inconclusive: 20 µM [inhibitor, single point]",

Compound,Potency,"activity, negative = inhibition"
COc1cccc(-c2cc(C3CCN(C(=O)Nc4ccccc4C)CC3)[nH]n2)c1,"inconclusive: 7.94 µM [inhibitor, single point]",
Cc1ccc(C)c(OC(=O)CSc2nnc(-c3cccs3)o2)c1,"inconclusive: 0.251 µM [inhibitor, full curve, poor fit]",
O=C(Nc1ccccc1)c1cnc(-c2ccc(F)cc2)nc1-c1ccncc1,"inconclusive: 17.8 µM [inhibitor, single point]",
O=C(Nc1cccc(F)c1)N1CCCC(CN2CCOCC2)CC1 (configuration not stated),"inconclusive: 11.2 µM [inhibitor, single point]",
c1ccc(-c2[nH]nc3ncc(-c4cn[nH]c4)nc23)cc1,"inconclusive: 5.01 µM [inhibitor, full curve, poor fit]",
Cn1c(=O)n(C)c2cc(N3CCOCC3)c(NS(=O)(=O)c3ccc(Cl)cc3)cc21,"inconclusive: 17.8 µM [inhibitor, single point]",
Cc1ccc(-n2c(=O)c3c(cnn3C)n(CC(=O)Nc3cccc(C)c3)c2=O)cc1,inactive,
COc1ccccc1N1CCN(C(=O)c2cc3c(-c4ccccc4F)nn(C)c3s2)CC1,active: 11.2 µM,
CCc1ccc2oc(-c3ccc(NC(=O)c4cccc(Cl)c4Cl)cc3)nc2c1,"inconclusive: 11.2 µM [inhibitor, single point]",
O=C(Cn1cnc2c(nc3n2CCCCC3)c1=O)Nc1cccc(C(F)(F)F)c1,"inconclusive: 11.2 µM [inhibitor, single point]",
COC(=O)c1ccccc1NC(=O)Cn1c(=O)n(CCCC(=O)NCc2ccccc2Cl)c(=O)c2ccccc21,"inconclusive: 0.178 µM [inhibitor, full curve, poor fit]",
NC(=O)c1ccc(CC2CCN(C(=O)C3CC=CC3)CC2)cc1,inactive,
CCc1cnc(-c2ccccc2)[nH]1,"inconclusive: 22.4 µM [inhibitor, partial curve, poor fit]",
CCc1ccc(NC(=O)CCCc2nnc3n(CCCOC)c(=O)c4sccc4n23)cc1,"inconclusive: 11.2 µM [inhibitor, single point]",
CN1CC(=O)N(C2CCNCC2)Cc2c1ncnc2N1CCc2ccccc2C1,"inconclusive: 5.62 µM [inhibitor, partial curve]",
COc1ccc(N2CCN(CCCNC(=O)c3ccc4nc(Cc5ccccc5)oc4c3)CC2)cc1,"inconclusive: 10 µM [inhibitor, single point]",
CN1CCCN(C(=O)CCC[C@@H]2[C@H]3CCCN4CCC[C@@H](CN2Cc2ccccc2)[C@@H]34)CC1,"inconclusive: 1.58 µM [inhibitor, full curve, poor fit]",
COC1CCOC2(CCN(C(=O)c3ccc4ccccc4n3)CC2)C1 (configuration not stated),inactive,
CC(=O)NC1(C)CCN(Cc2ccc(Nc3ccccc3)cc2)C1 (configuration not stated),"inconclusive: 11.2 µM [inhibitor, single point]",
COc1ccc(C(=O)Nc2ccc([C@@H](O)[C@H]3COCC(=O)N3Cc3ccccc3F)cc2)cc1,inactive,
O=C(C1CCCN(c2nc3ncccc3o2)C1)N1CCN(Cc2ccccc2)CC1 (configuration not stated),"inconclusive: 3.16 µM [inhibitor, partial curve]",
